# Assay results: the supplement of paper PMC12632987
# The full ranking holds about 4,500 sequences; the median of “median log2 fold change of GCK-ALFA target abundance (FLAG IP / Myc IP barcode read proportion)” is about 0.078, and the lowest 2% start at about -0.6. This is one part of the list.
# B1: GBRAP_139_3733 (protein)
# chain: SADDAAVAEVVALTKRSVETGGALVAEIADALNALDEDTADRAAEAMAEVLETQPFDVAEALFDALIDTLLTEHKNEDLATIVEAAANRALARIAVREEA
# B2: GBRAP_52_6083 (protein)
# chain: MEKEIEETANKIYEAIKAGDKEKALELIKEAIKKFSPEEIKEMLKLTAEKVASLGDEKHELFVDILTEAEDLMIEAGISEEEALLIVGDAEAALAKAVAA
# B3: GBRAP_14_3858 (protein)
# chain: VEEIVKAIKEAAEETKEFARELLPEHAEEVEAKIKELAEEAIKKVKEEKLNKEEVAELADEMAERLGEWIREHGWANDEEIAALRAELINNVLLKLEEIE
# B4: GBRAP_128_3244 (protein)
# chain: SQEELLEEAKKLVDEIVEADVEEAKELTKKLIELMKKLNKESREEVADYLIEKLKELSAEKLEAVADTLRENRPKLDDYTAALVAGVEIEALELALEQEE
# B5: GBRAP_78_6739 (protein)
# chain: KIEELIDEALEEIDKARELIKKLDPETQNELLDLITEALSDILLFETEGYNLEYLKEAIEHLEKAIELLKKIDTPVAKEAAKHLEKAVEYLKKAAELLEK
# B6: GBRAP_184_5292 (protein)
# chain: TVKRVVIEADTAEEAIAQIKAAAEAAKKAGVKLDLDLYLRNVSVEGFREIAKLLKELKEEGVIASATVDVLDERSEEETDELVKIADEAGIRLVVALSDE
# B7: GBRAP_83_6946 (protein)
# chain: KEKLVVATNGDNVEEGVEIAADLAKTGKYEVTLAFIGDVEAARKLIKEVGKALKKGVKFDIEIIVEGATEEEAEELRKELEKVAKEAGADVKIEVHVIPP
# B8: GBRAP_53_6394 (protein)
# chain: KEERIKKLIEEFRKLVEELKRADAEEAVRLAREAKAVLVELAKLGLPEEELVKLTRELAEAMRDRPELEPVLIELAKELAALGRYDAAAEVAEALVEELE
# B9: GBRAP_125_3146 (protein)
# chain: KRAALRALTVALARALGFSDEDIAELQRLADASDPAQAVVAVLLAAGFEEAAEVAAEVLPRLTVEEIEELRALAESLRDAPLEEVKAALLARLRELLARQ
# B10: GBRAP_125_3147 (protein)
# chain: KREALRRLARALARALGFSEEEIAEIERLADASDPAQTIVAILLAAGFEEAAEVAAKVLPKLTVEEIEELAELAEELEDAPLEEVKERLLKKLEELLKKL
# B11: GBRAP_128_3339 (protein)
# chain: VDEEKLEEVDKLVEEIIEADDEEAKKLAKELADHLVTLSLEEVEAAVEIIRKHIPKLSAEKLEILADVLREKLPLFSPEKQLIINDLIVDLLNEAEEKEE
# B12: GBRAP_122_2950 (protein)
# chain: ESEEEVEERVEETLERAEEEDPTEAIVESLLEAAEELTPEEVIRYAELLAERMIEKGLKAEAANAFARAALRLEEERPELAPVADHLADLAIELLDLLEE
# B13: GBRAP_150_3917 (protein)
# chain: DLETLLTVAETLKDLLEAILEGHFELLPHALKLAKAALELAKDITPEVEKLAREALEKVEKAEKAIKEGAPEEEVKKLAKEALKYAEELIKEIKKLIEEE
# B14: GBRAP_14_3882 (protein)
# chain: EEKIKALLKEHLKRFEEELERLRKLGLEEEAEKLEKRLEEELKKAEAAGDLAAAAKAAAAAAAEAEAIVLRKEEGWSEATAEAYARTEVANAELEIDELE
# B15: GBRAP_14_3880 (protein)
# chain: MEEIEKVLEEEFEDLAEDLAAMFPAKAEEIRELVEEERERAIERIRETGDVEKALREAEERLKARLTELLADEPETAIAAAKALVTNEIAEAELKIEELL
# B16: GBRAP_80_6797 (protein)
# chain: AAAALAAALAALAEVDAELAARVAAIVATARALGVSDADLADFVAAVLELAKADKEEAAALVDETEALLAEEAARGDTANATAVIRVHAGDALLAVEELE
# B17: GBRAP_35_5560 (protein)
# chain: DSDATIVDMMVNTIEDLTEAVADIPPAELRAITEQLAASAKAVVDDIADDKAGLERILAALEALRAAIAARGLDDPDLRAAAAAVDDAIAAARAAIAAAA
# B18: GBRAP_125_3122 (protein)
# chain: SEEEDLENLAALLKALGLDDEDVEEAVELARRFSIRGTLAAVMRALGREELADAVEKLTEEQTKEVVRKVVEYIKANPELTPEEVAELLLKTAKEAVAAS
# B19: GBRAP_52_6340 (protein)
# chain: SEEEVRRVAEEIAAAVEAGDLDRAVELTREAVRRFSREEVRRMLRLTAELMAERLPDRPDLVMEAAFRIADVVEEELGDEVLADDFLAYTARLLVERQQA
# Biological target: GABARAP, O95166
# Assay: median log2 fold change of GCK-ALFA target abundance (FLAG IP / Myc IP barcode read proportion) (log2 ratio); each designed protein is fused to an ALFA-tag nanobody in HEK293 cells to bring the named protein to FLAG-tagged glucokinase (GCK); Myc marks an untargeted standard; higher = target protein stabilised (more abundant)
# Settings: target protein: 3xFLAG-MCP-GCK-ALFA reporter; HEK293 landing pad (RPLP)
# Procedure, shortened: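 Sequencing of reverse-transcribed, amplified circular RNA barcodes from anti-FLAG and anti-Myc immunoprecipitates provided the readout for an ALFA-nanobody-fused binder library recombined into HEK293 landing-pad cells. Those cells were induced with 2 μg mL^−1 doxycycline, transfected with a plasmid expressing a FLAG-tagged target and a Myc-tagged standard, and lysed after 48 h. Target abundance is the per-binder median log2 ratio of FLAG to Myc barcode read proportions. Only barcodes at a proportion of ≥10^−7 in both replicates and binders with ≥3 barcodes per replicate were kept, with a 10^−6 pseudocount added before the two replicates were pooled.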
# Sequence of GABARAP, O95166 (O95166 whole entry, the tested form may be a part): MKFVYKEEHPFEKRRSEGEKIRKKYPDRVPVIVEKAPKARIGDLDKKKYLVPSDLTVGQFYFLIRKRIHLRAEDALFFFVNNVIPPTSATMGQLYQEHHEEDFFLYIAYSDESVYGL
row,Binder,median log2 fold change
1,B1,0.133
2,B2,-0.22
3,B3,0.359
4,B4,-0.658
5,B5,-0.312
6,B6,0.0645
7,B7,-0.0546
8,B8,0.202
9,B9,-0.088
10,B10,-0.266
11,B11,0.172
12,B12,-0.443
13,B13,0.0758
14,B14,0.279
15,B15,0.368
16,B16,-0.147
17,B17,0.127
18,B18,0.00437
19,B19,-0.23
